Source: the RNAGym collection of RNA variant scans (doi:10.7554/elife.90254)
Read counts are not given, so values of variants with three or more changes are uncertain.

B1: LINE1-full (parent)
chain: UACGUAGGUGGUUUUCCCCUGAUAGUGCUAAGGGGGCCUGGAAGUUUGGACUGGGCAGAGCUCAACACAGCGUGGCAAAGUGGCUGUGGCUAGACUGCCUCUCUGGAUUCCUCGUCACUCAGCAGGGCAUCUCUGAGAGAAAUGCC

Variants of: B1
Experiment: self-cleavage, relative activity (ratio to wild type); higher = more cleavage; in vitro, sequencing; the parent is a self-cleaving ribozyme

Variant	self-cleavage
U45A A77G A78G	1.59
A30U G83C U132C	1.33
U39A A77G A94G	0
U20A A67G G72A U96C U134G	0.04
U9C U23A U29C G75A U115A A124C	1.65
U9C U104A U109C A124G	0.73
G21U A59U U87C A124G	0
U112A A129U U130C	2.55
U12G U39C A50G	0.91
A69G G70A A78G G83A U108A U109C A129G	0.08
C38A U52C G88A U104C	0.09
G32A A43G C128U U134C U143C	1.12
A64U A77C U100A	0.22
A65G U132C A140G	0.07
G72A A79G U132A A141G	1.21
A31U U85C A107U A140U	0.07
A22G U52C A67G G75A A79G	1.08
U12C A92U A129G U134C	1.53
A2C G72A U73C U100C G105A A141G	1.73
U73C A92G A124C	0.27
U14C U112A A129C	0.84

Variant	self-cleavage
A64G C103U U115C	0.26
A6G A69G U73C U115A	0
U26C A64G A129G	0
U14A A64G A107U U115C	0.18
U85C U108C A124G	0
A42G U96A A140G	0.09
U100A A121U U130C	0.8
G35U U46A A69G U132C	0.34
G10U U29C U39C A69U A79G C113U	0
U12C U45C A57G U87C	0
U9A C118U A138G	1.8
A31U G44A A57U A64G U119A U130C	0.13
U102C C113U U119C A140U	2.52
A6G A69G U81A	0.1
U23C A64G A69G G88U	0
U26C A50G U81A U115C	2.04
A57G G127A U134G	0.36
A31G A64G U87A U119A	0
U81C U100A U108C	0.68
A78G U85C U100C	0.61
U15C C17G U39C U100C	0.59

Variant	self-cleavage
G4A U20A U91A A117G A138U	0.42
C17U A124G U132C	1.11
A31G A59C A142G	0
U46C U62C A67U U81C U119C A138G	0
U14C G27A A64U A140G	0.5
U1C G7A U47C G106C A121U A140G	2.37
A77U U100A U130A	0.87
A42G A67G A141U	0.46
U15C U23A U73G U81A A140G	2.37
U47C U108C U119A A138G	2.78
U29C U52A U115C	2.47
U9A A24U U26A U96C	0.4
A57G A65G G80A	0.14
U9A A67G U85C	0.44
U46C A64C U91A U130C A140G	0
A69U U96C A141G A142G	0
U39A A69G A94C	0.08
U26G A42U A129C	1.51
G10A A77U A92G U134C	0.16
A121G C128U A136G	1.5
U1G U104C A142G	0.9

Variant	self-cleavage
U45C A57G A59U U62C	0
U1C A31G U47A A124G	1.31
U9C U46A A129G	1.67
U12C A42G G58U	0.08
U87C A94G A141G A142G	0
U91C U132A A140G	0.66
U12C G88A U119C	0.15
U1C U62C A64G	0
A67G A124G A142G	0
U12C U104C A107G	2.16
U1C U39C U134C	1.17
A59U U62C A78G	0.08
U12G C19U U104C U112A U115A A129G	2.09
U39C U102C U119C	3
U13C U23C U45G U130C	1.02
C19U A107G U119A A141G	1.43
C3U G21A A59G U96A U143C	0
A31U A42G C51A A65G	0.08
U13C A65G A69U U81C G97A	0.09
U1C U15C A42G	2.83
A6G U14A A31G A94G A141G	0.18
